Measured values reported in paper PMC4336329 (PLoS ONE, 2015).
About 2,200 (0.71%) of roughly 310,000 compounds showed an effect of 50% or more. Effects have a minus sign here. Some of the results follow.

molecular target: human ether-à-go-go-related gene (hERG) potassium channel (human, UniProt Q12809); assay: primary screen, population patch clamp on CHO cells stably expressing hERG
Sequence (Q12809 whole entry, looked up): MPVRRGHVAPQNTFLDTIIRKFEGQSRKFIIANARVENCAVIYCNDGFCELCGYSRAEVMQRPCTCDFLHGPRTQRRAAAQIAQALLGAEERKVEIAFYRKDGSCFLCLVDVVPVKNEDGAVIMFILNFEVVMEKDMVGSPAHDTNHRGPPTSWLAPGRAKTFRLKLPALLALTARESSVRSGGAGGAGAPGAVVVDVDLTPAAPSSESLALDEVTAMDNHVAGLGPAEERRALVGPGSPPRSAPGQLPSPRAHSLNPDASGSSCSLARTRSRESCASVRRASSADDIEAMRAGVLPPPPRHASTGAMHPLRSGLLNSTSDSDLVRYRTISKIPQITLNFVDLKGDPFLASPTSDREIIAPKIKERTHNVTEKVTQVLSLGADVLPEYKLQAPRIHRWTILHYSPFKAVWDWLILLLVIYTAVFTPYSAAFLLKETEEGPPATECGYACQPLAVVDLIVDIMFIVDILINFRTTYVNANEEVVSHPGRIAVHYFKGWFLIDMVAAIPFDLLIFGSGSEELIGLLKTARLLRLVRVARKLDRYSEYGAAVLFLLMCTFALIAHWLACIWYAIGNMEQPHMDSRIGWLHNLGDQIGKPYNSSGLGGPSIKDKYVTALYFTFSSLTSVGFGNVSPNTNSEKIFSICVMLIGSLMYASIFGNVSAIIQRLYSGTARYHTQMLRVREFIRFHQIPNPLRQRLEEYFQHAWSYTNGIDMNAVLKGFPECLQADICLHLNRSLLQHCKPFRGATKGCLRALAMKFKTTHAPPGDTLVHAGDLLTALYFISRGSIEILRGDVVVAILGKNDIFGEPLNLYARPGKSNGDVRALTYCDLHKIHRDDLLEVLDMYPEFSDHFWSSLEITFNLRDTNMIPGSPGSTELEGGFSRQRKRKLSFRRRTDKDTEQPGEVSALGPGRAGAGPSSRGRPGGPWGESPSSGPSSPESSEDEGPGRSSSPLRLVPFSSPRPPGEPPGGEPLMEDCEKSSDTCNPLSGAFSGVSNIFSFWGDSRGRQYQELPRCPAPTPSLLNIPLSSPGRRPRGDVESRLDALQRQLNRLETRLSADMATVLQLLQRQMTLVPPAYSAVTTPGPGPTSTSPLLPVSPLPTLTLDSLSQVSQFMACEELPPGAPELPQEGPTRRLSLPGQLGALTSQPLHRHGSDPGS

SMILES	hERG current change (%, negative = inhibition) at 1uM [%]
COc1ccc(CNCCC2(Cc3ccccc3)CC(C)N(C)CC2C)cc1OC.Cl (centres unmarked)	12.4
CC(=O)c1ccc(N2CCN(S(=O)(=O)c3cn(C)c(C)n3)CC2)cc1	13.2
O=S(=O)(c1ccccc1)N1CCN(CC(O)COc2ccc3c(c2)CCC3)CC1 (centres unmarked)	7.37
Cc1ccc(S(=O)(=O)NCCC(=O)N2CC(C)OC(C)C2)cc1 (centres unmarked)	16.1
Cc1cc(Cl)ccc1OCC(=O)OCC(=O)c1c(N)n(C)c(=O)n(C)c1=O	-6.12
Cc1ccc(NS(=O)(=O)c2cc(C(=O)OCC(=O)NCC3CCCO3)ccc2C)cc1 (centres unmarked)	10.5
O=C(NCCCCNC(=O)c1ccccc1F)c1ccccc1F	13.2
COc1cccc(-c2csc(N3CCN(S(=O)(=O)c4ccc(F)cc4)CC3)n2)c1	-8.84
CCCCn1c(N)c(N(CC)C(=O)CSCc2c(C)noc2C)c(=O)[nH]c1=O	10
COc1ccc(-c2nc3c(n2O)CCc2c-3no[n+]2[O-])cc1	18.1
CCc1cccc2c(C(=O)CSc3nncn3C)c[nH]c12	11.2
CCCCN(CC)CCCNC(=S)Nc1ccc2nc(N3CCN(C)CC3)cc(C)c2c1	4.69
CSc1nnc(-c2cc3ccccc3cc2O)n1C	3.51
O=CN1CCN(C(=O)c2cccc([N+](=O)[O-])c2)CC1	8.76
COc1cccc(C(=O)Nc2c(C)nn(-c3ccccc3)c2C)c1	11.9
Cl.Fc1ccc(Nc2nc(N3CCOCC3)c3ccccc3n2)cc1	4.87
CCN(CC(=O)NC(C)(C)C)C(=O)CN1c2cccc3cccc(c23)S1(=O)=O	17.3
CCC(=O)c1ccc(OCC(=O)OCC(=O)N2CCN(c3ccc(OC)cc3)CC2)cc1	20.4
COC(=O)c1ccc(NC(=O)CCN2CCN(CCC(=O)Nc3ccc(C(=O)OC)cc3)CC2)cc1	1.76
CCCCN(C)Cc1c(C)[nH]c2ccccc2c1=O	-8.8
COCCNCCCOc1ccc(C(C)(C)c2ccccc2)cc1.O=C(O)C(=O)O	-2.99
CN(C)C1C(=O)c2ccccc2C1=O	2.44
COC(=O)CNC(=O)COC(=O)/C=C/c1ccc(F)cc1	12.2
CCC(Oc1ccccc1)C(=O)Nc1ccccc1C(=O)N1CCCCC1 (centres unmarked)	10.1
CCCC(=O)Nc1nc2n(n1)C(c1ccccc1)CC(=O)N2 (centres unmarked)	4.23
O=C(COC(=O)c1ccc(S(=O)(=O)N2CCc3ccccc3C2)cc1)NC(=O)NCc1ccco1	9.42
O=C(O)CCN1C(=O)C2C3CC(C2C1=O)C1C(c2ccccc2)c2sc(=O)n(-c4ccccc4)c2SC31 (centres unmarked)	13.3

SMILES	hERG current change (%, negative = inhibition) at 1uM [%]
Cc1cc(C2C(C#N)=C(N)OC3=C2C(=O)CCC3)c(C)s1 (centres unmarked)	-1.05
O=P(/C(=N/O)N1CCCCC1)(N1CCOCC1)N1CCOCC1	11
Cc1nn(CC(=O)NCCN2CCOCC2)c(C)c1[N+](=O)[O-]	21.7
CC(=O)C[C@@H](O)CC(=O)[C@H]1OC(=O)CCCCCCc2ccccc21	6.45
O=C(Nc1ccc(N2CCOCC2)cc1)c1cccc(S(=O)(=O)N2CCCCCC2)c1	9.66
COc1ccc(CN(C)C(=O)c2[nH]c(C)c(C(C)=O)c2C)cc1F	9.61
CC(NC(=O)c1cc2cc(Cl)ccc2oc1=N)c1ccccc1 (centres unmarked)	13.7
COc1ccc([C@@H]2[C@@H]3C(=O)N(C(C)(C)C)C(=O)[C@@H]3[C@]3(CC(C)C)C(=O)N(c4ccccc4)C(=O)N23)cc1	11.8
O=C(CN1C(=O)C2C3CCC(C3)C2C1=O)OCC(=O)c1cccc([N+](=O)[O-])c1 (centres unmarked)	16.4
Cc1cc(OCc2ccc(C(=O)n3cccn3)o2)ccc1Cl	2.13
CCN(CC)CCCn1c2c(c(SCC(=O)Nc3ccc(F)c(F)c3)nc1=O)CCC2	-8.08
Cc1cccc[n+]1CC(=O)/C=C1\N(C)c2ccccc2C1(C)C.[Cl-]	21.7
CC(C)(C)OC(=O)N/N=C\c1ccc(OC(=O)c2cccs2)cc1	9.49
O=c1c2ccccc2nc(SCc2cn3ccsc3n2)n1-c1ccccc1	8.55
Cc1onc(C(=O)N2CCN(c3ccccc3F)CC2)c1-c1ccccc1Cl	11.1
CCc1cc(CNC(=O)c2ccc(OC3CCN(C(C)=O)CC3)c(OC)c2)on1	17.5
CC(=O)C(C)Oc1ccc2c3c(c(=O)oc2c1C)CCCC3 (centres unmarked)	21.1
O=c1cc([O-])n(Cc2ccc(F)cc2)c(=O)[nH]1.[NH4+]	16
CCOc1ccc(C(=O)NCC(=O)N2CCC3(CC2)NCCc2[nH]cnc23)cc1	3.95
COc1ccc(C(CCN2CCOCC2)c2c(O)cc(OC)cc2OC)cc1 (centres unmarked)	-9.97
O=C(NNC(=O)c1ccco1)c1cccc(Br)c1	1.74
CC(=O)c1ccc(N2C(=O)[C@@H]3[C@H](C2=O)[C@H]2c4ccccc4C=NN2[C@@H]3C(C)=O)cc1	24.2
O=C(O)C(Cc1ccccc1)NS(=O)(=O)c1ccc(Cl)cc1 (centres unmarked)	9.27
Cc1cccc(-n2c(C)cc(/C=C3/C(=N)N4C(c5ccccc5)=CSC4=NC3=O)c2C)c1	4.26
C=CCN1c2ccccc2[C@]23C[C@@H](C(=O)OC)N(C(=O)OCC)C2=NC(C(=O)OC)=C(C(=O)OC)[C@H]13	10.2
CCC(=O)OCC(=O)[C@@]1(OC(=O)CC)[C@@H](C)C[C@H]2[C@@H]3CCC4=CC(=O)C=C[C@]4(C)[C@@]3(Cl)[C@@H](O)C[C@@]21C	8.68
